Several values for one entry are separate records, joined by “and”; a condition that tells them apart may be missing. Identical values can stand only once. Like-named read-outs stand apart in the source and are kept apart here.
Columns and labels:
[1] = target: PF-7802-labelled proteins in ARPE-19 cells (Homo sapiens, UniProt O15173); settings: replicates in separate columns
[2] = target: PF-7802-labelled proteins in ARPE-19 cells (Homo sapiens, UniProt P00403); settings: protein MT-CO2 Cytochrome c oxidase subunit 2 (P00403); replicates in separate columns
UniProt P00403, sequence (P00403 whole entry): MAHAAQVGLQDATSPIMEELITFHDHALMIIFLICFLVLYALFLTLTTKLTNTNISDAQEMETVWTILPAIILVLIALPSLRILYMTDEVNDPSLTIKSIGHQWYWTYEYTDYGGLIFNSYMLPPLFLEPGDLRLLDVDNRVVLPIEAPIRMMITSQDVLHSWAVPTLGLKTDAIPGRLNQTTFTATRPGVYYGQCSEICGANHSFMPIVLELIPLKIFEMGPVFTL

[3] = target: PF-7802-labelled proteins in ARPE-19 cells (Homo sapiens, UniProt P30044); settings: protein PRDX5 Peroxiredoxin-5, mitochondrial, P30044
[4] = target: PF-7802-labelled proteins in ARPE-19 cells (Homo sapiens, UniProt P30559); settings: replicates in separate columns
UniProt P30559, sequence (P30559 whole entry): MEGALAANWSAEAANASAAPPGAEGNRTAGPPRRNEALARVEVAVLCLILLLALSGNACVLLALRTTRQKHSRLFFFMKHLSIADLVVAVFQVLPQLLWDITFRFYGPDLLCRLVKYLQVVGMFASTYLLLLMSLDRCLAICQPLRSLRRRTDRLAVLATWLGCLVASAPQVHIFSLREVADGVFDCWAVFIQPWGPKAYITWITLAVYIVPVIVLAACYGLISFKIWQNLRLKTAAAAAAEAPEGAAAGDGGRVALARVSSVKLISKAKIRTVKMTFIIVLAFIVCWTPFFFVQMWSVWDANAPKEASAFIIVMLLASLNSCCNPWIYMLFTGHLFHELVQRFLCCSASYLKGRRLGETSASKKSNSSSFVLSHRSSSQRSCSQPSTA

[5] = target: PF-7802-labelled proteins in ARPE-19 cells (Homo sapiens, UniProt P35232); settings: protein PHB Prohibitin (P35232); replicates in separate columns
UniProt P35232, sequence (P35232 whole entry): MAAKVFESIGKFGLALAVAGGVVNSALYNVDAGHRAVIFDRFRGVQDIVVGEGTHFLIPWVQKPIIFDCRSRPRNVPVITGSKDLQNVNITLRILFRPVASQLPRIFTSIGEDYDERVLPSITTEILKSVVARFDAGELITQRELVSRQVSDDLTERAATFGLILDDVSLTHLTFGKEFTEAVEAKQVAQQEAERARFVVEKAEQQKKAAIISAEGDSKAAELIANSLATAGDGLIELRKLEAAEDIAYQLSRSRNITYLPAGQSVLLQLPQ

[6] = target: PF-7802-labelled proteins in ARPE-19 cells (Homo sapiens, UniProt P36578); settings: for Median SILAC Ratio (Heavy/Light): protein RPL4 60S ribosomal protein L4, P36578
[7] = target: PF-7802-labelled proteins in ARPE-19 cells (Homo sapiens, UniProt P39023); settings: protein RPL3 60S ribosomal protein L3, P39023
[8] = target: PF-7802-labelled proteins in ARPE-19 cells (Homo sapiens, UniProt P42766); settings: protein RPL35 60S ribosomal protein L35, P42766
[9] = target: T1, PF-7802-labelled proteins in ARPE-19 cells (Homo sapiens, UniProt P49368); settings: for Median SILAC Ratio (Heavy/Light): protein CCT3 T-complex protein 1 subunit gamma (P49368)
T1 sequence (P49368 1-545): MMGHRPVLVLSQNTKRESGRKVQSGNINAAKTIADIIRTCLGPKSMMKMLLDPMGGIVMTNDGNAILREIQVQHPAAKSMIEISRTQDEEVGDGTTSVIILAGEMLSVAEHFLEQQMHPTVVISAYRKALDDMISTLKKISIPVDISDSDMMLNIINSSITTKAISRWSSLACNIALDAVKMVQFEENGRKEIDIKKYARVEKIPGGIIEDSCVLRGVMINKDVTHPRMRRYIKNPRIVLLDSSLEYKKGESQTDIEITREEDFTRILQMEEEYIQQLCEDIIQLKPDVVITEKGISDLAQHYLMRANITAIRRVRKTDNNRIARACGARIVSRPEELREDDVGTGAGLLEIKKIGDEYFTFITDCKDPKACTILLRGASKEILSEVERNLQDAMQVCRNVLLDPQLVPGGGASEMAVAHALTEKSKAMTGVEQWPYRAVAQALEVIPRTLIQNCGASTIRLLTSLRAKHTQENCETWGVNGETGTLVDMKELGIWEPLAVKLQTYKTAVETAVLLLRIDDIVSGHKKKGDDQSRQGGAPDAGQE

[10] = target: T2, PF-7802-labelled proteins in ARPE-19 cells (Homo sapiens, UniProt P52597); settings: for Median SILAC Ratio (Heavy/Light): protein HNRNPF Heterogeneous nuclear ribonucleoprotein F (P52597), one column per replicate
T2 sequence (P52597 1-415): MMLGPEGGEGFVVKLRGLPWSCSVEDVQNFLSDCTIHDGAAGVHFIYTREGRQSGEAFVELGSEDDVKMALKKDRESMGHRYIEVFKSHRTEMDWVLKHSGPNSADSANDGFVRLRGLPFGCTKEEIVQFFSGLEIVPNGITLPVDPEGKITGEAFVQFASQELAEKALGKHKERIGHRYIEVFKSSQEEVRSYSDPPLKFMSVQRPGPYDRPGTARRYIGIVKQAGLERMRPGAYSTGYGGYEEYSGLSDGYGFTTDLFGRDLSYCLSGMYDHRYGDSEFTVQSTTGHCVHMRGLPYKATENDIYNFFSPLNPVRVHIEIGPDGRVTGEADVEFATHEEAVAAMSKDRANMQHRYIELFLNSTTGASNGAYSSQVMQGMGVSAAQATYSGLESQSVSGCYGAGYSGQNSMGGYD

[11] = target: PF-7802-labelled proteins in ARPE-19 cells (Homo sapiens, UniProt P60900); settings: protein PSMA6 Proteasome subunit alpha type-6, P60900
UniProt P60900, sequence (P60900 whole entry): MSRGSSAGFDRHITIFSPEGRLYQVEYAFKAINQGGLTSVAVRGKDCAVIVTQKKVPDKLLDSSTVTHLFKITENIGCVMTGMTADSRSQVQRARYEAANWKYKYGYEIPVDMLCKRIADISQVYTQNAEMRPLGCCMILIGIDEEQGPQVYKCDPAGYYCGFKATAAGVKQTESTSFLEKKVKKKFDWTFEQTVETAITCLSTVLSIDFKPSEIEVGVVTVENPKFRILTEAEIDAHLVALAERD

[12] = target: PF-7802-labelled proteins in ARPE-19 cells (Homo sapiens, UniProt Q14980); settings: protein NUMA1 Nuclear mitotic apparatus protein 1 (Q14980); replicates in separate columns
UniProt Q14980, sequence (Q14980 whole entry): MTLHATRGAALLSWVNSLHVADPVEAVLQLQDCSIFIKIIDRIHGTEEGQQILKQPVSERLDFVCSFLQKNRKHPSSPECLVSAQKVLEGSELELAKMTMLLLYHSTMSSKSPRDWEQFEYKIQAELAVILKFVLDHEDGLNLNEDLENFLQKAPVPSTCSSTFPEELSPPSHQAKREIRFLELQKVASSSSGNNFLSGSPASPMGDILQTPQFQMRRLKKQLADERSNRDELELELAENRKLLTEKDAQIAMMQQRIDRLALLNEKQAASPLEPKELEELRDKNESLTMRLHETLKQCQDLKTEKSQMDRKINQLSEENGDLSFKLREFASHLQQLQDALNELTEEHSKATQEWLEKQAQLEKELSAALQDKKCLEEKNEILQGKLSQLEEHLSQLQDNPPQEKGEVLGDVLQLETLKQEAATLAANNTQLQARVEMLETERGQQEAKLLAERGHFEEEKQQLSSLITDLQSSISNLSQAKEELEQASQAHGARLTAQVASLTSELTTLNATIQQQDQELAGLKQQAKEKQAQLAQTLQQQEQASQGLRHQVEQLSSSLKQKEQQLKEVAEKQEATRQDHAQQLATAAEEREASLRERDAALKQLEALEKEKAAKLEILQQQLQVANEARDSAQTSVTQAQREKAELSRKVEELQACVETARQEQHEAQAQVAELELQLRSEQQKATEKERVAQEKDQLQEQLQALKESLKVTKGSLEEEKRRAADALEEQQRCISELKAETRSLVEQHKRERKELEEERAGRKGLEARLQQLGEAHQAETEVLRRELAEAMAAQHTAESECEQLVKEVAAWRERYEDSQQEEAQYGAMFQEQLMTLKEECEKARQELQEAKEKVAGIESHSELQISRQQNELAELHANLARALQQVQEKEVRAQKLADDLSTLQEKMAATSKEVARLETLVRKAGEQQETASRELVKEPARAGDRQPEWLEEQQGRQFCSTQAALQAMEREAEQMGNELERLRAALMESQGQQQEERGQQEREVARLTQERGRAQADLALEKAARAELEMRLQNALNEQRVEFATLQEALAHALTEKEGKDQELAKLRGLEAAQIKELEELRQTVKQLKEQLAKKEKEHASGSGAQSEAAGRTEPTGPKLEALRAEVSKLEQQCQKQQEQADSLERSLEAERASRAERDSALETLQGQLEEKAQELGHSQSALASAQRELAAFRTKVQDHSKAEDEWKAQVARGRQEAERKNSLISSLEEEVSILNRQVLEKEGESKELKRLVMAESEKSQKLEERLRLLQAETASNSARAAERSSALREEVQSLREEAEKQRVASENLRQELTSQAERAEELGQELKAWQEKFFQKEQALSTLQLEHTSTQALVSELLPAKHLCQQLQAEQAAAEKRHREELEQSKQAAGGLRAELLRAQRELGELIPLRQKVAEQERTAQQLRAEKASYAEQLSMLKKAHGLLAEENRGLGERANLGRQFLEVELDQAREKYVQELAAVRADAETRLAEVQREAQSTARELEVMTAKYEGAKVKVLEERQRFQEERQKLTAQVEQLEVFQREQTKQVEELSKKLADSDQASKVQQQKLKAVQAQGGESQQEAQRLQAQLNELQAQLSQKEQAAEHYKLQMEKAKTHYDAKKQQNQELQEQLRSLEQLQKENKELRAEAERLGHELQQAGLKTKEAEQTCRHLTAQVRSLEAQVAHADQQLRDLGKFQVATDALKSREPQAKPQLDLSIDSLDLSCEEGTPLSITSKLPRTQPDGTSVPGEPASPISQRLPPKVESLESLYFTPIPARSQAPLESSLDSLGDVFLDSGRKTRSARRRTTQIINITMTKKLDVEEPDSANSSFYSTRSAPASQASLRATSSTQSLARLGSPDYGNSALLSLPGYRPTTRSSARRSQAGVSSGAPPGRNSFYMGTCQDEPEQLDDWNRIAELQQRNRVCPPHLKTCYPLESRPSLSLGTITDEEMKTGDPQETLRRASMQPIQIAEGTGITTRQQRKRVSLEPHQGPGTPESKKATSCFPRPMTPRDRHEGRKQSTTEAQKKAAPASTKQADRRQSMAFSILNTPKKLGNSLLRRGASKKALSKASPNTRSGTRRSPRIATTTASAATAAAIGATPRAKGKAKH

[13] = target: T3, PF-7802-labelled proteins in ARPE-19 cells (Homo sapiens, UniProt Q15084); settings: for Median SILAC Ratio (Heavy/Light): protein PDIA6 Protein disulfide-isomerase A6 (Q15084), replicates in separate columns
T3 sequence (Q15084 20-440): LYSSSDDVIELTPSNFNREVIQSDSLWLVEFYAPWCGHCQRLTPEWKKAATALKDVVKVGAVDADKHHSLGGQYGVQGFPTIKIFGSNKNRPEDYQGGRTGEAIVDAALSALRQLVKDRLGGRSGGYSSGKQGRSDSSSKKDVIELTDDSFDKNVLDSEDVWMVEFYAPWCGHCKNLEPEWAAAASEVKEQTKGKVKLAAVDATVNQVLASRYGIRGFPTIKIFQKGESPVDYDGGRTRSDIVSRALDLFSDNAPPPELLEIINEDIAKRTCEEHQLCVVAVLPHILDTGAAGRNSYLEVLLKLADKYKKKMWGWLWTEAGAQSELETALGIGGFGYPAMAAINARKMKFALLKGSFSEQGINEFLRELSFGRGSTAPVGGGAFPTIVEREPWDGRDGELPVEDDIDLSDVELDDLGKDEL

[14] = target: PF-7802-labelled proteins in ARPE-19 cells (Homo sapiens, UniProt Q86Y46); settings: protein KRT73 Keratin, type II cytoskeletal 73 (Q86Y46); one column per replicate
UniProt Q86Y46, sequence (Q86Y46 whole entry): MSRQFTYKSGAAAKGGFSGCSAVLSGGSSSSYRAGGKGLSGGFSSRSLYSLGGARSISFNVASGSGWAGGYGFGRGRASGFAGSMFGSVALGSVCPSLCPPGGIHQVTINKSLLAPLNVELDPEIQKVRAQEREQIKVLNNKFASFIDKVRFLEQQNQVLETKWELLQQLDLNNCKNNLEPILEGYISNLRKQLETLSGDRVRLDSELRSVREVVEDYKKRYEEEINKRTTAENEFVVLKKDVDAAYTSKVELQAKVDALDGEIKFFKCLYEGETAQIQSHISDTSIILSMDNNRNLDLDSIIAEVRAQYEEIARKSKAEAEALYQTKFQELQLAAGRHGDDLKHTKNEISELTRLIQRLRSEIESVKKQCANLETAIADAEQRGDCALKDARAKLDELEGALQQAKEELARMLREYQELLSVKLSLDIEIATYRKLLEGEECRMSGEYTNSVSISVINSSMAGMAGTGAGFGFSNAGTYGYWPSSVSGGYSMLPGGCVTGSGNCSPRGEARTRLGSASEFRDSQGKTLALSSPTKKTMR

[15] = target: PF-7802-labelled proteins in ARPE-19 cells (Homo sapiens, UniProt Q99714); settings: protein HSD17B10 3-hydroxyacyl-CoA dehydrogenase type-2 (Q99714); one column per replicate
UniProt Q99714, sequence (Q99714 whole entry): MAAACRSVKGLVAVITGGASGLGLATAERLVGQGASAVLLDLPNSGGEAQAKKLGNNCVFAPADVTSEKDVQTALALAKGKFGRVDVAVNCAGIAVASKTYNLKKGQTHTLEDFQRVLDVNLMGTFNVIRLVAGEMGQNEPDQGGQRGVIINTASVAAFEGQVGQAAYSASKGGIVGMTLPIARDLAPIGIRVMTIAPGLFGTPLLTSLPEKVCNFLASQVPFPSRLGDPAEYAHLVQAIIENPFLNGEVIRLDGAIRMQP

[16] = target: PF-7802-labelled proteins in ARPE-19 cells (Homo sapiens, UniProt Q9BWM7); settings: SFXN3 Sideroflexin-3 (Q9BWM7)
UniProt Q9BWM7, sequence (Q9BWM7 whole entry): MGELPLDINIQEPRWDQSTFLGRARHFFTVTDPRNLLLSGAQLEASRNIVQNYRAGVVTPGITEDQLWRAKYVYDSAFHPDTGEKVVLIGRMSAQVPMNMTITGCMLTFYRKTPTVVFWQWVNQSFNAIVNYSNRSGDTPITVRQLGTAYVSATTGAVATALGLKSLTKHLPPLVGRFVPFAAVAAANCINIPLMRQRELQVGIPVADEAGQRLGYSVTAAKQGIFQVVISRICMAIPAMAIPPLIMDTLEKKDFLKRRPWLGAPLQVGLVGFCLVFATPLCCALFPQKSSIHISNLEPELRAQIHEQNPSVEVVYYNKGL

UniProt O15173, sequence (O15173 whole entry): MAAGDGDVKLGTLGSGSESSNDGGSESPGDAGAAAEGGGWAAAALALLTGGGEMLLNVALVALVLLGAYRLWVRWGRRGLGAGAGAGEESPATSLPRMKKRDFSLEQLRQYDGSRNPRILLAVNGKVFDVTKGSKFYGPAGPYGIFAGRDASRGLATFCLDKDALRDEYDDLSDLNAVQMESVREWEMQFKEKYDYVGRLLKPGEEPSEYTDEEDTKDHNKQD

Compound | Median SILAC Ratio (Heavy/Light) [2] | Median SILAC Ratio (Heavy/Light) [3] | Median SILAC Ratio (Heavy/Light) [5] | Median SILAC Ratio (Heavy/Light) [6] | Median SILAC Ratio (Heavy/Light) [7] | Median SILAC Ratio (Heavy/Light) [8] | Median SILAC Ratio (Heavy/Light) [9] | Median SILAC Ratio (Heavy/Light) [10] | Median SILAC Ratio (Heavy/Light) [11] | Median SILAC Ratio (Heavy/Light) [12] | Median SILAC Ratio (Heavy/Light) [13] | Median SILAC Ratio (Heavy/Light) [14] | Median SILAC Ratio (Heavy/Light) [15] | Median SILAC Ratio (Heavy/Light) [16] | other results
CNC1CCN(C(=O)C[C@@H](Cc2ccccc2)C(=O)N[C@@H](CSC)C(=O)N[C@@H](CC2CCCCC2)[C@@H](O)C(=O)OC(C)C)CC1 [CP-108671, reference compound] | 1.2459 | 1.141 | 1.214 | 1.5195 | 1.433 | 1.4703 | 1.467 | 1.094 | 1.922 | 1.229 | 1.078 | 9.803 | 1.368 | 1.272 | Median SILAC Ratio (Heavy/Light) ([1]; protein PGRMC2 Membrane-associated progesterone receptor component 2 (O15173)): 1.254; Median SILAC Ratio (Heavy/Light) ([4]; protein OXTR Oxytocin receptor (P30559)): 1.084; SILAC ratio (DMSO/CP-108671) ([6]; P36578 RPL4 60S ribosomal protein L4): 0.66; SILAC ratio (DMSO/CP-108671) ([9]; P49368 CCT3 T-complex protein 1 subunit gamma): 0.68; SILAC ratio (DMSO/CP-108671) ([10]; P52597 HNRNPF Heterogeneous nuclear ribonucleoprotein F): 0.91; SILAC ratio (DMSO/CP-108671) ([13]; Q15084 PDIA6 Protein disulfide-isomerase A6): 0.93
Cc1cc([C@H]2C[C@H]3[C@@H](C)SC(N)=N[C@@]3(c3ccc(F)cc3F)CO2)on1 [PF-9283] | 1.293 | 1.372 | 1.332 and 2.325 | 1.523 and 1.925 | 1.235 | 1.367 and 1.145 | 1.243 | 1.29 | 2.229 | 1.356 | 1.274 and 1.02 | 4.51 | 2.093 | 1.476 | Median SILAC Ratio (Heavy/Light) ([1]; […]): 1.341; Median SILAC Ratio (Heavy/Light) ([4]; […]): 1.536

From paper PMC5062570 (Nature Communications, 2016)
